Laboratory results from the RNAGym collection of RNA variant scans (doi:10.7554/elife.90254).
The source gives no read counts; variants with many changes may rest on few reads.

B1: LINE1-full (parent)
chain: UACGUAGGUGGUUUUCCCCUGAUAGUGCUAAGGGGGCCUGGAAGUUUGGACUGGGCAGAGCUCAACACAGCGUGGCAAAGUGGCUGUGGCUAGACUGCCUCUCUGGAUUCCUCGUCACUCAGCAGGGCAUCUCUGAGAGAAAUGCC

Variants of: B1
Assay: self-cleavage, relative activity (ratio to wild type); higher = more cleavage; in vitro, sequencing; the parent is a self-cleaving ribozyme

Variant | self-cleavage
U12C U91C A92G A138G | 0.24
U12C U91C U109A A138U | 1.29
U12C U96A A121G | 0.14
U12C U96A U102C A107G A142G | 0.15
U12C U96C U100C G106A A107G | 0
U12C U96C U109A | 0.34
U12C U100A U112A | 0.46
U12C U100C A136U | 1.64
U12C U100C A138G | 1.46
U12C U100C U112A A141U | 2.11
U12C U102A A142G | 1.42
U12C U102C A142G | 2.22
U12C U108C U132A | 2.34
U12C U108C U132C | 1.6
U12C U119C A141G | 1.45
U12C U130C C146U | 1.5
U12C U134A A136G | 1.46
U12C U134A A138G | 1.55
U12G A22G U119C A142G | 0.95
U12G A22U C38U U87A G114A A121G | 0.19
U12G A24G A77U G126A A142G | 0.77
U12G A24G U45C A79G G127A | 0
U12G A24G U87A U100C A138U A142U | 0.16
U12G A24G U91A | 0.75

Variant | self-cleavage
U12G A30G U62C U134A | 0
U12G A42U A50G G125U | 1.01
U12G A43G A142G | 0
U12G A43G U46C A59G | 0
U12G A43G U87A C145U | 0.13
U12G A43G U130C G144A | 0.24
U12G A50G U81C U104A | 0.92
U12G A50G U91C | 0.38
U12G A50U A92U A142G | 0.66
U12G A57G A59G U96C | 0.84
U12G A57G U85A | 0
U12G A57U A64G U91C | 0.56
U12G A57U A94G U109C C128U | 0.16
U12G A57U A140G A141G | 0.31
U12G A59G A67G A117U G144A | 0.69
U12G A59G G60U G80A G97C | 0.05
U12G A59U U96A | 0.08
U12G A69G U134A | 0.16
U12G A77G U85A | 0.3
U12G A77U U96A | 0
U12G A78U A94G A141G | 0.99
U12G A79G A138G | 2.3
U12G A94U U112A | 0.32
U12G A107G A142U | 1.91

Variant | self-cleavage
U12G A107G C111A A117G A141G | 1.65
U12G A136G U143C | 1.62
U12G C19U A124G | 0.16
U12G C19U C118U | 2.57
U12G C19U U73C | 1.08
U12G C37U A78G | 1.17
U12G C56G U108G | 0.21
U12G C61U A79G A138G | 0.04
U12G G25A A42G U100C | 0.56
U12G G32A U109A | 0.88
U12G G33A A57G A121G | 1.28
U12G G40A A92G A107G U130C A138U | 0.24
U12G G53A U81C U112C | 1.01
U12G G74A A142C U143C G144U | 1.53
U12G G74A U108C U119C | 2.83
U12G G75C A140G | 0.61
U12G G88A A107C | 0
U12G G89C U91C A141G | 0
U12G U13C U14C A22G G89A | 0
U12G U13G A57G A77G | 1.31
U12G U14C C120U | 1.42
U12G U14C G89A A94G | 0.1
U12G U14C U26C U143A | 1.35
U12G U14C U143C | 0.89

Variant | self-cleavage
U12G U15A G139A | 0.6
U12G U15C C19U C63U U115C A124G | 0.49
U12G U15C C37G U62C G97A A141U | 0.24
U12G U15C U26C G93A A129G | 0.11
U12G U15C U87G A94C G125A U132C U134C | 0
U12G U15C U115A | 2.11
U12G U20A U29A C111A A138U | 1.97
U12G U20C C98U | 0.35
U12G U23C A79G G83A | 1.19
U12G U23C U132A | 0
U12G U26A A140G | 0.93
U12G U26C A65G U87A A129G | 0
U12G U26C U73A U104C | 0.66
U12G U29C A92G C146U | 0
U12G U29C C103A | 0.85
U12G U39C G74A A141G | 0.87
U12G U39C G105U A138U | 1.46
U12G U39C U81A A136U | 1.76
U12G U45C A64U U85A A117G C145U | 0.46
U12G U45C U112A | 0.78
U12G U46A G82A A94U A142G U143C | 0.32
U12G U46C U62C | 0.11
U12G U47A A67G A121U | 0
U12G U47A G89C | 0.12

Variant | self-cleavage
U12G U47A U73A A94G | 0.13
U12G U47C A64U A140G | 0.75
U12G U52A U130C | 1.84
U12G U52C A69C | 0.68
U12G U52C U104C C110U | 1.67
U12G U62A U109C A141G | 0
U12G U62C A129C | 0.4
U12G U62C U85C | 0.28
U12G U73C A77U | 1.53
U12G U81A C98A | 0.42
U12G U81C G126A | 1.53
U12G U87C A141G | 0.6
U12G U91C A136G | 0
U12G U132A A136U | 1.16
U13A A22G A50C | 0.64
U13A A22G G74A | 0.8
U13A A22G U96C U104C C118A | 0.6
U13A A24G A50G A77U G106U A121G | 0.95
U13A A24G A78U | 0
U13A A24G U47G U119C A136G | 2.19
U13A A30U A42G U115A | 1.07
U13A A31G U109C | 0.78
U13A A42G C98G | 0.1
U13A A42G C113U | 0.46

Variant | self-cleavage
U13A A42G G88A | 0.06
U13A A42G U62C U96C G105A | 0
U13A A42U U62A C90U A94U A129U | 0.02
U13A A43G A59G U73A U100C | 0
U13A A43G G72A | 0.38
U13A A43U G60A A69C | 0.06
U13A A57C U73A G86U G127U A136G A138G | 0.01
U13A A57G A64G | 0.63
U13A A57G A79U | 1.25
U13A A57U U91C | 0.03
U13A A57U U96C | 0.04
U13A A59G U62C U112C A142G | 0
U13A A59G U104A U119C | 0
U13A A59U U132A | 1
U13A A64G A67U | 0.12
U13A A64G U104C | 0.08
U13A A67C U108C | 0.18
U13A A67G G125U | 0.41
U13A A69C A92C | 0
U13A A79G A141G | 0.93
U13A A79G G93A U119C A136U | 0.02
U13A A79U U96G A140G | 0.05
U13A A92U G93A A94G | 0.02
U13A A107U C113U A129U | 0.96

Variant | self-cleavage
U13A A107U C123G A136G | 1.46
U13A A124G A140G | 0.08
U13A A138C A141G | 1.68
U13A C19G C28U U109G | 1.53
U13A C28A A42G A50G A141G | 0.4
U13A C37G A64U U104C A124U G139A | 0.22
U13A C103U U104C | 1.28
U13A G21A A124U A129U | 1.65
U13A G21A U47C U100C A124U | 1.02
U13A G27U U46C U85A | 0.06
U13A G35A A140G | 0.71
U13A G41A U85A | 0
U13A G49U U52C G54A A78G U102C | 0.17
U13A G83A U100C A107U A129U A140G | 0.26
U13A G93U U115A A136U | 0
U13A U14A U109A | 0.6
U13A U14C A69G | 0.7
U13A U14C A78G U132C | 0.8
U13A U14C C111A | 0.69
U13A U14C G105U U109C | 0.79
U13A U14C U46C A124G A136C A140G | 0.42
U13A U15A C28G A50U A59G U73C A94U | 0.24
U13A U15G A117G | 1.1
